According to the supplement of paper PMC12217912:
The other results are listed elsewhere or left out. Sequences were assembled here from the parent chain. Values near 0.05 are background.

B1: TEV protease; numbered along this chain (parent)
chain: MGESLFKGPRDYNPISSSICHLTNESDGHTTSLYGIGFGPFIITNKHLFRRNNGTLVVQSLHGVFKVKDTTTLQQHLVDGRDMIIIRMPKDFPPFPQKLKFREPQREERICLVTTNFQTKSMSSMVSDTSCTFPSGDGIFWKHWIQTKDGQCGSPLVSTRDGFIVGIHSASNFTNTNNYFTSVPKNFMELLTNQEAQQWVSGWRLNADSVLWGGHKVFMVKPEEPFQPVKEATQL

Variants of: B1
Assay: raw area under fraction-flipped curve 0-4 h after induction (AUC4h, not background-subtracted), DNA-recorder readout of cleavage of the substrate (dimensionless); higher = more cleavage of the substrate by the protease variant
Conditions: temperature: 34 °C; time window: 0-4 h after rhamnose induction
Method: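 In vivo DNA recorder in E. coli TOP10(DE3) ΔrhaA at 34 °C. Each TEVp single-site mutant (parent TEVp 0) is paired with a single-site variant of the 7-mer TEVs (canonical ENLYFQ|S). The substrate sits between flexible linkers in a Bxb1-sfGFP-TEVs-SsrA fusion, so cleavage stabilises Bxb1 and speeds flipping of a recombination array, read by NGS. The value is the raw area under the fraction-flipped curve over 0-4 h after rhamnose induction (AUC4h), with ≥20 reads per time point. It is not background-subtracted; inactive controls average about 0.047.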
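Note: Bxb1 expression induced with 0.2% (w/v) L-rhamnose at OD600 near 0.5, cultures sampled hourly, flipped fraction per protease–substrate barcode pair counted by paired-end Illumina sequencing.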

Variant | area with substrate EALYFQS | area with substrate ECLYFQS | area with substrate EELYFQS | area with substrate EGLYFQS | area with substrate EILYFQS | area with substrate EKLYFQS | area with substrate ELLYFQS | area with substrate EMLYFQS | area with substrate EPLYFQS | area with substrate EQLYFQS | area with substrate ERLYFQS | area with substrate ESLYFQS | area with substrate EVLYFQS | area with substrate EWLYFQS | area with substrate EYLYFQS | area with substrate EFLYFQS | area with substrate EHLYFQS | area with substrate ETLYFQS | area with substrate EDLYFQS
N177F | 0.072 | 0.0809 | 0.067 | 0.0516 | 0.0722 | 0.0709 | 0.0629 | 0.0635 | 0.0378 | 0.0669 | 0.0666 | 0.0615 | 0.0767 | 0.0724 | 0.083 | – | – | – | –
D137W | 0.0957 | 0.107 | 0.121 | – | – | – | – | – | 0.0928 | 0.0679 | – | 0.157 | 0.0706 | – | – | 0.0983 | – | – | –
Y179P | 0.0499 | 0.0505 | 0.0506 | 0.0531 | 0.0812 | – | – | 0.0544 | 0.0591 | – | 0.0466 | 0.0559 | – | 0.0661 | 0.0484 | 0.0594 | 0.0526 | 0.0515 | –
Y179H | 0.069 | 0.0535 | 0.0515 | 0.0667 | 0.0601 | – | 0.0504 | – | 0.072 | 0.0583 | – | 0.065 | – | 0.0648 | – | – | 0.0578 | – | 0.0711
Y179G | 0.0377 | 0.0457 | – | – | – | – | 0.0592 | 0.0681 | – | 0.0425 | – | – | – | – | – | 0.0609 | – | 0.0678 | 0.0657
H143E | 0.0464 | 0.049 | 0.0454 | – | 0.0547 | 0.0598 | – | 0.0535 | 0.0483 | 0.0489 | 0.0589 | 0.0577 | 0.0549 | 0.054 | 0.0457 | – | 0.0724 | – | –
H143V | 0.0737 | 0.03 | – | 0.0669 | 0.0736 | 0.0752 | – | 0.0799 | 0.0667 | 0.0857 | 0.0779 | 0.0628 | 0.0733 | 0.0704 | 0.0507 | – | 0.094 | – | 0.0946
H143S | 0.069 | 0.0832 | 0.0752 | 0.0545 | 0.103 | 0.0645 | 0.0801 | 0.118 | 0.104 | 0.0898 | 0.0831 | 0.114 | 0.0791 | 0.0816 | – | 0.0988 | 0.0865 | – | 0.11
F173V | 0.0908 | 0.11 | – | – | – | 0.107 | 0.0961 | 0.107 | 0.0971 | 0.146 | 0.0813 | 0.0898 | 0.107 | 0.076 | – | 0.0967 | – | 0.16 | –
N193H | 0.105 | – | 0.119 | – | – | 0.0807 | 0.0988 | 0.0969 | – | – | 0.0879 | – | – | – | 0.067 | – | – | – | 0.213
L156A | 0.0996 | 0.108 | 0.0919 | – | 0.092 | – | – | 0.1 | – | 0.12 | – | 0.0962 | 0.0836 | 0.0889 | 0.0799 | 0.0801 | – | – | –
L156F | 0.0672 | 0.0677 | 0.0522 | – | – | 0.0558 | – | 0.0663 | – | 0.0591 | 0.0731 | – | 0.0445 | – | 0.0718 | – | 0.0732 | – | –
E189Q | 0.127 | 0.101 | 0.134 | 0.0909 | – | – | – | – | 0.113 | 0.121 | 0.0862 | 0.0065 | 0.0856 | – | – | – | – | 0.128 | 0.12
N178L | 0.199 | 0.0961 | – | – | – | 0.12 | – | – | – | 0.149 | 0.091 | 0.0848 | 0.113 | – | – | – | – | 0.18 | –
D149A | 0.146 | 0.0617 | 0.112 | 0.0591 | – | 0.0681 | – | – | 0.0919 | – | – | 0.0991 | 0.0984 | 0.0963 | 0.109 | – | – | – | 0.122
